Test results: PubChem BioAssay AID2546 (National Center for Advancing Translational Sciences (NCATS), 2010)
“And” between values parts separate entries of the source, which are not always exact repeats. Equal values may be shown once. The whole screen tested about 310,000 compounds, of which about 11,000 (3.5%) were called active. Inconclusive results, whose numbers are uncertain, are shown with a selection of clear calls. Calls follow the shape of the dose curve; as a rule, active = well fitted inhibition curve with a large enough effect; inconclusive = small, poorly fitted or top-dose-only effect, or effect the other way; inactive = flat fitted curve, though single readings scatter. Where the call is inconclusive, the potency comes from a doubtful curve fit.

test: VP16 counterscreen qHTS for inhibitors of ROR gamma transcriptional activity; details: Drosophila S2 Gal4-VP16 UAS-luciferase, luminescence, 20 h; series mostly up to 53.6 µM; activity, negative = inhibition: at the top concentration;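 also: Gal4-VP16 expression switched on by copper sulfate through the metallothionein promoter; nearly all actives have a fitted effect of over 50% in size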
Description: NIH Molecular Libraries Probe Production Network [MLPCN]
NIH Chemical Genomics Center [NCGC]
Assay Provider: Dan Littman, New York University
The retinoic acid-related orphan receptor (ROR) gamma is a transcription factor that has a central role in the differentiation of Th17 cells, a subset of T helper cells that secrete the inflammatory cytokines IL-17, IL-17F, and IL-22. Th17 cells have been implicated in graft versus host disease, autoimmune disease and asthma. ROR gamma is induced in naive T helper cells in the presence of TGF-beta combined with IL-6, IL-21, or IL-23, and thereafter directs the expression of the Th17 lineage cytokines. To identify nonspecific inhibitors, a Drosophila Schneider cell line was stably transfected with two vectors: a gene expressing a fusion of the Gal4 DNA binding domain and VP16 transactivation domain under the control of the metallothionine promoter and a Photinus luciferase reporter regulated by the Gal4 binding site enhancer, UAS. […] Small molecule inhibitors that inhibit components common to the RORgt and VP16 assays, such as the Gal4 DNA binding domain or the UAS luciferase reporter, will be active in both assays and thus scored as nonspecific.
For screening, 600 cells in 4 uL/well were dispensed into white solid 1536-well plates (Grenier) using a solenoid-based dispenser. Following transfer of 23 nL compound or DMSO vehicle by a pin tool, the plates were incubated 1 hr at ambient temperature, and 1 uL/well copper sulfate (700 uM final concentration) was added. The plates were centrifuged 15 s at 1000 RPM and incubated 20 hr at ambient temperature. After addition of 1.5 uL Photinus luciferase detection reagent, the plates were incubated 10 min at ambient temperature and then read by a ViewLux (Perkin Elmer) to detect luminescence.
% is scaled to controls: 0 for no effect and ±100 for the full control effect; potency is read from the fitted curve at half-maximal effect; tags tell the direction and shape of the fitted curve.

SMILES	Potency	activity, negative = inhibition
NNc1n[nH]c(=S)n1N	inconclusive: 35.5 µM [inhibitor, single point]	
CCCCC/C=C\C/C=C\C/C=C\C/C=C\CCCC(=O)NC1CC1	inconclusive: 35.5 µM [inhibitor, single point]	
COc1ccc(CC2NCC(O)C2OC(C)=O)cc1 (stereo not drawn)	active: 0.0794 µM	
Cc1ccc(C(=O)NC(=S)NNS(=O)(=O)c2ccc(C)cc2)cc1	inconclusive: 22.4 µM [inhibitor, single point]	
O=c1c2ccccc2nc2n1CCS2(=O)=O	inconclusive: 3.98 µM [inhibitor, single point]	
O=C(Nc1cc(C(F)(F)F)ccc1O)Nc1cc(C(F)(F)F)ccc1O	inconclusive: 28.2 µM [inhibitor, single point]	
NC(=S)c1cn(C2OC(CO)C(O)C2O)c2ncnc(N)c12 (stereo not drawn)	active: 2.51 µM	
CCCCCn1c(=O)c(C(=O)Nc2ccccn2)c(O)c2ccccc21	inconclusive: 31.6 µM [inhibitor, single point]	
COP(=O)(OC)C1(O)C(=O)Nc2ccc(Br)cc21 (stereo not drawn)	inconclusive: 14.1 µM [inhibitor, partial curve]	
O=C(N/N=C/c1c(O)n(CCc2ccccc2)c(=O)[nH]c1=O)c1ccccc1O		inactive: -0.953%
S=C1CN=C(c2ccccc2)c2cc(Cl)ccc2N1	active: 6.31 µM	
C[C@@H]1OC=C2[C@@H](O)[C@H]3O[C@H]3C(=O)[C@@]23[C@H]1[C@H]1C2=C([C@@H](O)[C@H]4O[C@@H]4C2=O)[C@@H]3O[C@@H]1C		inactive: 27.9% [at 10 µM]
CCN(CC)S(=O)(=O)c1ccc(C)c(NCC(=O)Nc2ccc(C#N)c(Cl)c2)c1	inconclusive: 25.1 µM [inhibitor, single point]	
C=C1C([C@@]2(C)C(OC(C)=O)CC(=O)O[C@@](C)(COC(C)=O)C2CC(=O)OC)C(OC=O)C(OC(=O)C(OC(C)=O)C(C)CC)[C@]2(C)C(c3ccoc3)CC(=O)C12O (stereo partly drawn)		inactive: -1.83%
CCOP(=O)(OCC)C(NC(=O)c1ccc(C)cc1)=C(Cl)Cl		inactive: 1.52%
Cc1ccc(S(=O)(=O)NC(CC(=O)N2CCC3(CC2)OCCO3)c2ccco2)cc1 (stereo not drawn)	inconclusive: 20 µM [inhibitor, single point]	
CCC(=NCC1CCCO1)c1c(O)n(-c2ccccc2C)c(=O)[nH]c1=O (stereo not drawn)	inconclusive: 12.6 µM [inhibitor, single point]	
O=C1C2C3CCC(C3)C2C(=O)N1c1ccc(OS(=O)(=O)c2ccccc2)cc1 (stereo not drawn)	inconclusive: 31.6 µM [inhibitor, single point]	
C/C=C(\C)C(=O)OC1C(C)=C2C(C1OC(=O)CCCCC)C(C)(OC(C)=O)CC(OC(=O)CCC)C1(O)C2OC(=O)C1(C)O (stereo not drawn)	active: 17.8 µM	
CCOC(=O)N1C(C)CN(/[N+]([O-])=N/Oc2ccc([N+](=O)[O-])cc2[N+](=O)[O-])CC1C (stereo not drawn)	inconclusive: 35.5 µM [inhibitor, single point]	
CCN(CC)C(=O)COc1cc(C)cc2oc(=O)c3c(c12)CCCC3	inconclusive: 6.31 µM [activator, partial curve]	

SMILES	Potency	activity, negative = inhibition
COc1ccc(NC(=O)N2CCC3(CC2)CCN(C(=O)Oc2ccccc2)CC3)cc1	inconclusive: 35.5 µM [inhibitor, single point]	
C=CCNC(=O)c1c(N)n(CCN2CCOCC2)c2nc3ccccc3nc12		inactive: -8.36%
CC[C@H]1CN2CCc3cc(OC)c(OC)cc3[C@H]2C[C@@H]1C[C@@H]1NCCc2cc(OC)c(OC)cc21	active: 2.51 µM	
O=C1NC(=O)N(CCC2=CCCCC2)C(=O)/C1=C\c1cccs1	inconclusive: 35.5 µM [inhibitor, single point]	
CC(C)NS(=O)(=O)c1ccc(OCC(=O)N2CCN(Cc3ccc4c(c3)OCO4)CC2)c(Cl)c1	inconclusive: 17.8 µM [inhibitor, single point]	
CN1CCN(C(=O)COc2ccc3ccccc3c2)CC1		inactive: 1.17%
OC(c1ccccc1)(c1ccccc1)C1CCNCC1	inconclusive: 14.1 µM [activator, single point]	
O=C(c1ccccc1F)c1cn(Cc2ccc(F)cc2)c2ccccc12	inconclusive: 5.62 µM [activator, single point]	
CCCCn1c(O)c(/C(C)=N/NC(=O)Nc2ccccc2)c(=O)[nH]c1=O	inconclusive: 1.58 µM [activator, full curve, poor fit]	
COc1ccc(CCNC(=O)c2c(N)n(CCN3CCOCC3)c3nc4ccccc4nc23)cc1	inconclusive: 35.5 µM [inhibitor, single point]	
CCCC[N+]12CCC(CC1)C(=C(c1ccccc1)c1ccccc1)C2	inconclusive: 35.5 µM [inhibitor, single point]	
COc1ccc(-c2nc3ccccc3c(=O)n2-c2nccs2)cc1	inconclusive: 20 µM [inhibitor, single point]	
COc1ccc(-n2nc(C(=O)NCC(=O)N3CCC4(CC3)OCCO4)c3ccccc3c2=O)c(OC)c1	active: 10 µM	
S=c1[nH]nc(-c2ccc3ccccc3n2)n1-c1ccc2c(c1)OCCO2	inconclusive: 6.31 µM [inhibitor, single point]	
N#C/C=C/C#N	inconclusive: 20 µM [inhibitor, partial curve, poor fit]	
CCOc1c(Cl)cc(CNCCc2c[nH]c3ccccc23)cc1OC	inconclusive: 22.4 µM [inhibitor, single point]	
C=C[C@@H]1C[C@@]1(C)[C@@H](NP(=O)(c1ccccc1)c1ccccc1)c1ccccc1	inconclusive: 35.5 µM [inhibitor, single point]	
O=C1C2(Cl)C3(Cl)C4(Cl)C(Cl)(Cl)C5(Cl)C3(Cl)C1(Cl)C5(Cl)C24Cl (stereo not drawn)	inconclusive: 31.6 µM [inhibitor, single point] and inconclusive: 22.4 µM [inhibitor, single point]	
CC(=O)O[C@H]1C(=O)[C@@]2(C)C([C@H](OC(=O)c3ccccc3)[C@]3(O)C[C@H](OC(=O)[C@H](O)[C@@H](NC(=O)c4ccccc4)c4ccccc4)C(C)=C1C3(C)C)[C@]1(OC(C)=O)CO[C@@H]1C[C@@H]2OC(=O)[C@H](C)NC(=O)c1ccc(-c2c3ccc(=O)cc-3oc3cc(O)ccc23)c(C(=O)O)c1 (stereo partly drawn)		inactive: -6% [at 10 µM]
CCCCn1c(O)c(C(CC)=Nc2cccc(C(=O)O)c2)c(=O)[nH]c1=O		inactive: 0.376%
N#C/C(=C\c1ccc(O)c(O)c1)C(N)=S		inactive: 0.884%

SMILES	Potency	activity, negative = inhibition
CCOC(=O)C1CCCN(C(=O)c2ccc3oc(Cc4ccccc4)nc3c2)C1 (stereo not drawn)	inconclusive: 14.1 µM [activator, single point]	
O=C(CNC(=O)c1cccc(Cl)c1)Nc1ccc(Br)cc1C(=O)c1ccccc1	inconclusive: 35.5 µM [inhibitor, single point]	
O=C(CCN1CCN(c2ccccc2)CC1)c1ccc(Br)cc1	inconclusive: 15.8 µM [inhibitor, single point]	
C/C(CC(c1ccccc1)c1c(O)c2ccccc2oc1=O)=N\NC(N)=S (stereo not drawn)	inconclusive: 25.1 µM [inhibitor, single point]	
CC(=O)c1cn(CCCOc2ccccc2)c2ccccc12	active: 6.31 µM	
COC(=NC1CCCCC1)C(O)c1c[nH]c2ccccc12 (stereo not drawn)		inactive: 4.87%
Cc1c(C(=O)c2ccccc2)c2ccccc2n1C		inactive: -1.64%
CC(=O)Nc1ccccc1C(=O)OCc1ccc(C(=O)c2ccccc2)cc1	inconclusive: 35.5 µM [inhibitor, single point]	
COc1ccc(-c2nn(CCC#N)cc2C(=O)Nc2ccc(C(C)=O)cc2)cc1[N+](=O)[O-]		inactive: -0.543%
N#CC(C#N)=NNc1ccc(-n2ccc(C(F)(F)F)n2)cc1	active: 3.55 µM	
CN1CC(CNC(=O)OCc2ccccc2)CC2c3cccc4c3c(cn4C)CC21 (stereo not drawn)	inconclusive: 35.5 µM [inhibitor, single point]	
O=C1C2CCN(CC2)C1(CO)CO	inconclusive: 10 µM [inhibitor, partial curve] and inconclusive: 17.8 µM [inhibitor, single point]	
COc1ccc(CN2CCN(C(=O)COc3cccc(C)c3)CC2)c(OC)c1		inactive: -10.1%
C=C/C(=C/C(=O)C[C@H](C)C[C@@H](C)CC[C@H](O)[C@H](C)C(=O)C[C@@H](O)[C@H](C)[C@@H](C)OC(=O)C[C@@H](O)C1=C(C)C(=O)OC1=O)CC	inconclusive: 0.0631 µM [inhibitor, full curve]	
Cc1cc(C(=O)CN2C(=O)c3ccccc3C2=O)c(C)n1C1CC1	active: 15.8 µM	
CC(=O)OC1CC[C@@]2(C)C3CC[C@]4(C)C(=O)CCC4C3CC[C@H]2C1 (stereo partly drawn)	inconclusive: 25.1 µM [inhibitor, single point]	
CCC(=NCCc1ccccc1)c1c(O)n(C2CCCCC2)c(=O)[nH]c1=O	inconclusive: 35.5 µM [inhibitor, single point]	
CCCCC/C=C\C/C=C\C/C=C\C/C=C\CCCC(=O)NCCc1ccc(O)c(O)c1	inactive	
O=c1[nH]c(=S)[nH]c(O)c1/C=C1/C=c2ccccc2=N1	active: 12.6 µM	
C[C@H]1CC[C@]2(OC1)O[C@@H]1C[C@@H]3[C@@H]4CC[C@H]5C[C@@H](O)CC[C@]5(C)[C@@H]4CC(=O)[C@@]3(C)[C@H]1[C@@H]2C	inconclusive: 2.51 µM [inhibitor, single point]	
c1csc(CN2CC[C@@]3(CCCNC3)C2)n1		inactive: -9.73%
